Assay results: PubChem BioAssay AID1460 (National Center for Advancing Translational Sciences (NCATS), 2008)
Hit rate of the full screen: of about 270,000 compounds, about 5,800 (2.1%) were called active. Inconclusive results, whose numbers are uncertain, are shown with a selection of clear calls. Calls follow the shape of the dose curve; as a rule, active = well fitted inhibition curve with a large enough effect; inconclusive = small, poorly fitted or top-dose-only effect; inactive = flat fitted curve, though single readings scatter. Where the call is inconclusive, the potency comes from a doubtful curve fit.

Each compound was assayed against Microtubule-associated protein tau (Homo sapiens) (UniProt P10636) (assay: qHTS for Inhibitors of Tau Fibril Formation, Thioflavin T Binding). Details: recombinant tau K18 P301L (four-repeat tau fragment), heparin-induced fibrillization, ThT fluorescence; series mostly up to 57.4 µM.
Summary of the method: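 Heparin-induced (20 uM) aggregation of recombinant human K18 P301L tau, 15 uM unlabeled with 0.24 uM labeled, pH 7 acetate buffer, 6 hr at 37 C with compound. Fibrils quantified by 30 uM ThT fluorescence after 1 hr ambient incubation.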
Also: nearly all actives have a fitted effect of over 55% in size.
Potency is read from the fitted curve at half-maximal effect; tags tell the direction and shape of the fitted curve.

Sequence of UniProt P10636 (P10636 whole entry, looked up, the tested form may be a part): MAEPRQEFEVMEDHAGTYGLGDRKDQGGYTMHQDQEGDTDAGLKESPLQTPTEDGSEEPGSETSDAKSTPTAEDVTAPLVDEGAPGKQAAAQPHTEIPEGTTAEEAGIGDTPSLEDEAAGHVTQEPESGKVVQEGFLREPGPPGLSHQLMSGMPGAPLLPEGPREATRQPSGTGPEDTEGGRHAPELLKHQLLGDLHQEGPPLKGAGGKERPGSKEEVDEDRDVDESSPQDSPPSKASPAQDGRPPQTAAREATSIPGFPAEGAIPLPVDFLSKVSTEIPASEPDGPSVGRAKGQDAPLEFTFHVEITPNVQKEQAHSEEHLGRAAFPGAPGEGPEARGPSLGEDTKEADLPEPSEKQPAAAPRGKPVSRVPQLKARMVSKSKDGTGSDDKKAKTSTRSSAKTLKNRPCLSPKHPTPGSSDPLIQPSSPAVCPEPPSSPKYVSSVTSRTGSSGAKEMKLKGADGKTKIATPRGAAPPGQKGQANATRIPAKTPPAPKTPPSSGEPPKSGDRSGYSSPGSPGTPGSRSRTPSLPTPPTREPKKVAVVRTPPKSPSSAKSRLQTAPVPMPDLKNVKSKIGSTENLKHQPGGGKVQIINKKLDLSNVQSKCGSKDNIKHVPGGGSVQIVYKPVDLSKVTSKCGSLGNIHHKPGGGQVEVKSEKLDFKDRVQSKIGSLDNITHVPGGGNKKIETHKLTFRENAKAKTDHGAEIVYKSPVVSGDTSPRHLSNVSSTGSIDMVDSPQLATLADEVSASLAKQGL

Structure (SMILES) | Potency
COC(=O)c1sc2ncccc2c1OCc1ccccc1Cl | inconclusive: 39.8 µM [inhibitor, single point]
O=C(CSc1nccn1C1CCCC1)Nc1ccccc1 | inactive
Cc1cc(C(=O)CSc2nnc(-c3cccs3)n2Cc2ccccc2)c(C)n1C | inconclusive: 25.1 µM [inhibitor, single point]
COC(=O)c1c(-c2cccs2)csc1NC(=O)COc1ccc(C(C)C)cc1 | active: 28.2 µM
COC(=O)c1nc(NC(=O)c2ccc(F)cc2)n[nH]1 | inconclusive: 39.8 µM [inhibitor, single point]
O=C(NC1(O)C(=O)c2ccccc2C1=O)c1ccccc1 | active: 2.82 µM
COc1cc(/C=N/NC(=O)c2cccc(NC(=O)c3ccccc3Cl)c2)ccc1O | inconclusive: 12.6 µM [inhibitor, partial curve]
COC(=O)c1cc2oc(C)cc2n1Cc1ccc(Cl)cc1 | inconclusive: 31.6 µM [inhibitor, single point]
O=C(O)Cc1c[nH]c2cccc(O)c12 | inconclusive: 20 µM [inhibitor, single point]
O=C(OCCN1C(=O)c2cccc3c(N4CCOCC4)ccc(c23)C1=O)c1cc(Cl)cc(Cl)c1 | inactive
C=CCn1c(N)cc(=O)nc1SCC(=O)N1CCN(c2ccc(F)cc2)CC1 | inactive
O=C1NC(=O)/C(=C\c2ccc(OCc3cccc(C(=O)O)c3)c(Cl)c2)N1 | inconclusive: 0.891 µM [inhibitor, full curve]
COc1ccc(C(=O)CSc2nnc(-c3ccoc3C)n2CC2CCCO2)cc1 (stereo not given) | inconclusive: 44.7 µM [inhibitor, partial curve, poor fit]
CN(/N=C/c1ccccc1Cl)c1ncc(Cl)cc1C(F)(F)F | inactive
CCOC(=O)c1cc(C#N)c(SCC(N)=O)[nH]c1=O | inconclusive: 8.91 µM [inhibitor, partial curve]
CCOc1ccc(C(=O)OCc2cc(=O)n3nc(C(C)C)sc3n2)cc1 | inactive
CCN(CC)CCn1c(OC)cc(=O)[nH]c1=O | inactive
CCn1c2c(c(=O)n3ncc(C(=O)Nc4ccc(F)c(Cl)c4)c13)CN(Cc1ccc(OC)cc1)CC2 | inconclusive: 0.141 µM [inhibitor, full curve, poor fit]
O=C(CSc1ccc(-c2ccccc2)nn1)N1CCCc2ccccc21 | inconclusive: 28.2 µM [inhibitor, single point]
CN1CCc2c(sc3c2C(=O)NC(c2ccc(-c4ccc(Cl)cc4)o2)N3)C1 (stereo not given) | active: 3.16 µM
Cc1cccc(CCNC(=O)c2nc(-c3ccc(Cl)cc3)n3c2CCCCC3)c1 | inactive
CC(=O)OCC(=O)Nc1ccc(Cl)cc1Cl | inactive
CCN(CC)C(=O)CSC(Nc1ccc(F)cc1)=C(C#N)C#N | inconclusive: 22.4 µM [inhibitor, partial curve]
O=c1c([N+](=O)[O-])c(N2CCCCC2)c2ccccc2n1-c1ccccc1 | inactive
CCOC(=O)c1cc(CC)sc1NC(=O)CSc1nc2ccccc2c(=O)n1Cc1ccco1 | inconclusive: 39.8 µM [inhibitor, single point]

Structure (SMILES) | Potency
Clc1ccc(SCNc2ccccc2Cl)cc1 | inconclusive: 31.6 µM [inhibitor, single point]
CC(Oc1ccc2ccccc2c1)C(=O)NNC(=S)NC(=O)c1ccco1 (stereo not given) | inconclusive: 8.91 µM [inhibitor, partial curve]
COc1cc(NC(=O)COC(=O)/C=C/c2ccc(O)c(OC)c2)cc(OC)c1 | inconclusive: 17.8 µM [inhibitor, single point]
Oc1ccc(-c2cccc(-c3ccc(O)cc3)n2)cc1 | inconclusive: 15.8 µM [inhibitor, partial curve]
Cc1ccccc1OCC(=O)Nc1nnc(S(=O)(=O)N(C)c2ccccc2)s1 | inconclusive: 0.891 µM [inhibitor, full curve]
CC(C)OCCCn1c(=N)c(C(N)=S)cc2c(=O)n3ccccc3nc21 | inconclusive: 11.2 µM [inhibitor, partial curve, poor fit]
COc1ccccc1N1CCN(C(=O)c2cc3c(=O)n(Cc4cccnc4)ccc3nc2C)CC1 | inactive
Cc1cccc(NC(=O)c2nc[nH]c2C(=O)N[C@@H](Cc2ccccc2)C(=O)OCc2ccccc2)c1 | inconclusive: 44.7 µM [activator, single point]
Cc1ccc(/C=N/n2c(C3CCCCC3)n[nH]c2=S)o1 | inactive
COc1ccc(C)c2sc(N(CCCN(C)C)C(=O)c3ccc(S(=O)(=O)N(C)C)cc3)nc12 | inactive
CC(=O)N(\C=C/C=C/C=C1\Sc2ccccc2C1=O)c1ccccc1 | active: 6.31 µM
CCc1ccc(Nc2nc3ccccc3c3nnc(C)n23)cc1 | inconclusive: 39.8 µM [inhibitor, single point]
CCOc1cccc(/C=N/NC(=S)Nc2cc(S(=O)(=O)N3CCOCC3)ccc2N2CCOCC2)c1O | inactive
O=C(CCCn1c(=S)[nH]c2ccccc2c1=O)NC1CCCC1 | inactive
COc1cc(-c2cc(=O)c3c(O)c(OC)c(OC)cc3o2)cc(OC)c1O | inconclusive: 39.8 µM [inhibitor, single point]
Cc1ccc(/C=N/OC(=O)c2nn(C)cc2Cl)cc1 | inconclusive: 10 µM [inhibitor, partial curve]
O=[N+]([O-])c1cccc(OCc2cn3cccnc3n2)c1 | inconclusive: 14.1 µM [inhibitor, partial curve]
CCOc1ccccc1NC(=O)NC(CC)c1c(-n2cccc2)sc2c1CCN(C)C2 (stereo not given) | inactive
COc1cccc(/C=C/C(=O)OCC(=O)c2cc(C)n(CC3CCCO3)c2C)c1OC (stereo not given) | inconclusive: 15.8 µM [inhibitor, partial curve]
Oc1c(Cl)cc(Cl)cc1/C=N/c1nc(-c2ccc(Cl)cc2)cs1 | inconclusive: 17.8 µM [inhibitor, partial curve, poor fit]
Cc1c(Cl)cccc1N1C(=O)CC(NNC(=O)c2cccnc2)C1=O (stereo not given) | inconclusive: 25.1 µM [inhibitor, single point]
COCCCN=Cc1c(C)[nH]n(-c2ccc(Br)cc2Br)c1=O | inactive
Cc1noc(/C=C/N(C)C)c1S(=O)(=O)N1CCCC(C(=O)NCc2ccccc2Cl)C1 (stereo not given) | inconclusive: 8.91 µM [inhibitor, partial curve]
Cc1ccc(S(=O)(=O)c2cn(CC(=O)Nc3ccccc3)c3cc4c(cc3c2=O)OCO4)cc1 | inactive
COc1ccc(-c2nc(SCC(=O)NCc3ccco3)c(-c3ccccc3)[nH]2)cc1OC | inactive

Structure (SMILES) | Potency
Nc1nonc1-c1nc2ccccc2n1CC(=O)Nc1ccc(F)cc1 | inconclusive: 39.8 µM [inhibitor, single point]
CCN=C1NN=C(c2ccc(C)cc2)CS1 | inconclusive: 28.2 µM [inhibitor, single point]
O=c1[nH]c(CN2CCOCC2)nc2ccccc12 | inactive
CC(=O)c1cc(-c2ccccc2)n(CC(=O)Nc2ccc(C)cc2C)c1C | inactive
COc1cc(/C=N/N2CCN(c3ccccc3OC)CC2)ccc1O | inconclusive: 17.8 µM [inhibitor, partial curve]
CC(=O)c1ccc(N2CCN(C(=O)/C=C/c3ccc4ccccc4n3)CC2)cc1 | inconclusive: 5.01 µM [inhibitor, partial curve]
CCc1ccc(Nc2cc(C(=O)NCCCN3CCOCC3)c3ccccc3n2)cc1 | inconclusive: 31.6 µM [inhibitor, partial curve]
O=C1CCC/C(=N/Nc2ccc(Cl)cc2)C1 | active: 25.1 µM
COc1ccc(NC(=O)c2ccc(Br)o2)cc1 | inconclusive: 56.2 µM [inhibitor, partial curve, poor fit]
CC(=O)c1ccc(OC(=O)c2c(-c3ccccc3Cl)noc2C)cc1 | inactive
NS(=O)(=O)c1ccc(NC(=S)NCc2ccccc2)cc1 | inactive
COc1cc(-c2onc3ccc(Br)cc23)cc(OC)c1OC | inconclusive: 39.8 µM [inhibitor, single point]
CCOc1ccc(-c2cn(-c3cccc(SC)c3)c(=O)[nH]2)cc1 | inconclusive: 6.31 µM [inhibitor, full curve, poor fit]
CCc1ccc(S(=O)(=O)c2nnn3c2nc(NCCC(C)C)c2cc(Cl)ccc23)cc1 | inactive
CCOC(=O)c1cc(OC(=O)c2cc(Cl)ccc2OC)n(-c2ccccc2)n1 | inactive
Cc1nn(-c2cc(N3CCCCCC3)ccc2[N+](=O)[O-])c(=O)c2ccccc12 | inconclusive: 11.2 µM [inhibitor, partial curve]
COc1ccc(O)c(/C=N/NC(=O)CSc2nnc(C)n2-c2ccccc2)c1 | inactive
CC1=Nc2ccccc2/C1=C\c1nc(-c2ccc(C(F)(F)F)cc2)oc1O | active: 12.6 µM
Cc1c(N/N=C(\C#N)C(=O)c2ccc(Cl)cc2)c(=O)n(-c2ccccc2)n1C | inactive
O=C1c2ccccc2C(Nc2ccc(-c3nc4ccccc4[nH]3)cc2)N1Cc1ccco1 (stereo not given) | inconclusive: 5.01 µM [inhibitor, partial curve]
COC(=O)CN1C(=O)N/C(=C/c2ccc(C)o2)C1=O | inconclusive: 28.2 µM [inhibitor, partial curve]
Cn1cc(-c2cc3n(n2)CCC(=O)N3CC(=O)NCc2ccccc2)c2ccccc21 | inactive
CCOC(=O)C1CCCN(C(=O)c2ccc(OCC)cc2)C1 (stereo not given) | inactive
O=C(CSc1nnc(-c2ccco2)o1)c1ccccc1 | inactive
CCN1C/C(=C/c2cccc([N+](=O)[O-])c2)C(=O)/C(=C/c2cccc([N+](=O)[O-])c2)C1 | inconclusive: 15.8 µM [inhibitor, partial curve]
